Biological target: protein kinase C-beta I/II (control protein, rat cerebellar supernatant) (rat, UniProt P68403)
Assay: co-immunoprecipitation with anti-CAPON antibody from rat cerebellar supernatant, Western blot for PKC-beta I/II

B1: rat brain CAPON (endogenous, cerebellar supernatant) (other)
chain: MPSKTKYNLVDDGHDLRIPLHNEDAFQHGISFEAKYVGSLDVPRPNSRVEIVAAMRRIRYEFKAKNIKKKKVSIMVSVDGVKVILKKKKKKKEWTWDESKMLVMQDPIYRIFYVSHDSQDLKIFSYIARDGASNIFRCNVFKSKKKSQAMRIVRTVGQAFEVCHKLSLQHTQQNADGQEDGESERNSDGSGDPGRQLTGAERVSTATAEETDIDAVEVPLPGNDILEFSRGVTDLDAIGKDGGSHIDTTVSPHPQEPMLAASPRMLLPSSSSSKPPGLGTGTPLSTHHQMQLLQQLLQQQQQQTQVAVAQVHLLKDQLAAEAAARLEAQARVHQLLLQNKDMLQHISLLVKQVQELELKLSGQSTMGSQDSLLEITFRSGALPVLCESTTPKPEDLHSPLLGAGLADFAHPVGSPLGRRDCLVKLECFRFLPAEDNQPMAQGEPLLGGLELIKFRESGIASEYESNTDESEERDSWSQEELPRLLNVLQRQELGDSLDDEIAV
Does B1 bind?
Result: no binding

— US6103872, “CAPON: a protein associated with neuronal nitric oxide synthase” (The Johns Hopkins University, dated 2000)
